# The other results are listed elsewhere or left out.
# Key:
# Assay in all cases: glycan array binding signal (z-score within array); higher = stronger binding
# Details in all cases: glycan notation: IUPAC condensed, linker removed
# [1] = molecular target: GlcNAc(a1-3)Gal(b1-4)GlcNAc
# Summary of the method: (§1)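 The binding signal is a Z-score computed within each array. Data were drawn from 3228 arrays in the Consortium for Functional Glycomics database, restricted to those with a known protein sequence. Scores were averaged over arrays of the same protein sequence at different concentrations or buffers, and over linkers, and negative values can be taken as non-binding.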
# [2] = molecular target: GlcNAc(a1-6)Gal(b1-4)GlcNAc
# Summary of the method: as §1
# [3] = molecular target: GlcNAc(b1-2)Gal(b1-3)GalNAc
# Summary of the method: as §1
# [4] = molecular target: GlcNAc(b1-2)Man(a1-3)[GlcNAc(b1-2)Man(a1-6)]Man(b1-4)GlcNAc(b1-4)GlcNAc
# Summary of the method: as §1
# [5] = molecular target: GlcNAc(b1-3)Gal
# Summary of the method: as §1
# [6] = molecular target: GlcNAc(b1-3)Gal(b1-3)GalNAc
# Summary of the method: as §1
# [7] = molecular target: GlcNAc(b1-3)Gal(b1-4)Glc
# Summary of the method: as §1
# [8] = molecular target: GlcNAc(b1-3)Gal(b1-4)GlcNAc
# Summary of the method: as §1
# [9] = molecular target: GlcNAc(b1-3)Gal(b1-4)GlcNAc(b1-3)Gal(b1-4)GlcNAc
# Summary of the method: as §1
# [10] = molecular target: GlcNAc(b1-3)GalNAc
# Summary of the method: as §1
# [11] = molecular target: GlcNAc(b1-3)[GlcNAc(b1-6)]Gal(b1-4)GlcNAc
# Summary of the method: as §1
# [12] = molecular target: GlcNAc(b1-3)[GlcNAc(b1-6)]GalNAc
# Summary of the method: as §1
# [13] = molecular target: GlcNAc(b1-3)[GlcNAc(b1-6)]GlcNAc(b1-4)GlcNAc
# Summary of the method: as §1
# [14] = molecular target: GlcNAc(b1-4)Gal(b1-4)GlcNAc
# Summary of the method: as §1
# [15] = molecular target: GlcNAc(b1-4)GlcNAc(b1-4)GlcNAc
# Summary of the method: as §1
# [16] = molecular target: GlcNAc(b1-4)GlcNAc(b1-4)GlcNAc(b1-4)GlcNAc(b1-4)GlcNAc
# Summary of the method: as §1
# [17] = molecular target: GlcNAc(b1-4)GlcNAc(b1-4)GlcNAc(b1-4)GlcNAc(b1-4)GlcNAc(b1-4)GlcNAc
# Summary of the method: as §1
# [18] = molecular target: GlcNAc(b1-4)[GlcNAc(b1-6)]GalNAc
# Summary of the method: as §1
# [19] = molecular target: GlcNAc(b1-6)Gal(b1-4)GlcNAc
# Summary of the method: as §1
# [20] = molecular target: GlcNAc(b1-6)GalNAc
# Summary of the method: as §1
# [21] = molecular target: Kdn(a2-3)Gal(b1-3)GlcNAc
# Summary of the method: as §1
# [22] = molecular target: Kdn(a2-3)Gal(b1-4)GlcNAc
# Summary of the method: as §1
# [23] = molecular target: Man(a1-2)Man(a1-2)Man(a1-3)Man
# Summary of the method: as §1
# [24] = molecular target: Man(a1-2)Man(a1-2)Man(a1-6)[Man(a1-3)]Man
# Summary of the method: as §1
# [25] = molecular target: Man(a1-2)Man(a1-3)Man
# Summary of the method: as §1
# [26] = molecular target: Man(a1-2)Man(a1-3)[Man(a1-2)Man(a1-6)]Man
# Summary of the method: as §1
# [27] = molecular target: Man(a1-2)Man(a1-3)[Man(a1-2)Man(a1-6)]Man(a1-6)[Man(a1-2)Man(a1-2)Man(a1-3)]Man(b1-4)GlcNAc(b1-4)GlcNAc
# Summary of the method: as §1
# [28] = molecular target: Man(a1-2)Man(a1-3)[Man(a1-6)]Man(a1-6)[Man(a1-2)Man(a1-3)]Man(b1-4)GlcNAc(b1-4)GlcNAc
# Summary of the method: as §1
# [29] = molecular target: Man(a1-2)Man(a1-6)[Man(a1-3)]Man(a1-6)[Man(a1-2)Man(a1-2)Man(a1-3)]Man(b1-4)GlcNAc(b1-4)GlcNAc
# Summary of the method: as §1
# [30] = molecular target: Man(a1-3)[Man(a1-6)]Man
# Summary of the method: as §1
# [31] = molecular target: Man(a1-3)[Man(a1-6)]Man(a1-6)[Man(a1-2)Man(a1-3)]Man(b1-4)GlcNAc(b1-4)GlcNAc
# Summary of the method: as §1
# [32] = molecular target: Man(a1-3)[Man(a1-6)]Man(a1-6)[Man(a1-3)]Man(b1-4)GlcNAc(b1-4)GlcNAc
# Summary of the method: as §1
# [33] = molecular target: Man(a1-3)[Man(a1-6)]Man(b1-4)GlcNAc(b1-4)GlcNAc
# Summary of the method: as §1
# [34] = molecular target: Man(b1-4)GlcNAc
# Summary of the method: as §1
# [35] = molecular target: Neu5Ac(a2-3)Gal
# Summary of the method: as §1
# [36] = molecular target: Neu5Ac(a2-3)Gal(b1-3)GalNAc
# Summary of the method: as §1
# [37] = molecular target: Neu5Ac(a2-3)Gal(b1-3)GalNAc(b1-3)Gal(a1-4)Gal(b1-4)Glc
# Summary of the method: as §1
# [38] = molecular target: Neu5Ac(a2-3)Gal(b1-3)GalNAc(b1-3)Gal(b1-4)GlcNAc
# Summary of the method: as §1
# [39] = molecular target: Neu5Ac(a2-3)Gal(b1-3)GalNAc(b1-4)[Neu5Ac(a2-3)]Gal(b1-4)Glc
# Summary of the method: as §1
# [40] = molecular target: Neu5Ac(a2-3)Gal(b1-3)GalNAc6S
# Summary of the method: as §1
# [41] = molecular target: Neu5Ac(a2-3)Gal(b1-3)GlcNAc
# Summary of the method: as §1
# [42] = molecular target: Neu5Ac(a2-3)Gal(b1-3)GlcNAc6S
# Summary of the method: as §1
# [43] = molecular target: Neu5Ac(a2-3)Gal(b1-3)[Fuc(a1-4)]GlcNAc
# Summary of the method: as §1
# [44] = molecular target: Neu5Ac(a2-3)Gal(b1-3)[Fuc(a1-4)]GlcNAc(b1-3)Gal(b1-4)[Fuc(a1-3)]GlcNAc
# Summary of the method: as §1
# [45] = molecular target: Neu5Ac(a2-3)Gal(b1-3)[Neu5Ac(a2-3)Gal(b1-4)]GlcNAc
# Summary of the method: as §1
binder,measurement,setting,value
"MMR (Homo sapiens), P22897 (protein) MRLPLLLVFASVIPGAVLLLDTRQFLIYNEDHKRCVDAVSPSAVQTAACNQDAESQKFRWVSESQIMSVAFKLCLGVPSKTDWVAITLYACDSKSEFQKWECKNDTLLGIKGEDLFFNYGNRQEKNIMLYKGSGLWSRWKIYGTTDNLCSRGYEAMYTLLGNANGATCAFPFKFENKWYADCTSAGRSDGWLWCGTTTDYDTDKLFGYCPLKFEGSESLWNKDPLTSVSYQINSKSALTWHQARKSCQQQNAELLSITEIHEQTYLTGLTSSLTSGLWIGLNSLSFNSGWQWSDRSPFRYLNWLPGSPSAEPGKSCVSLNPGKNAKWENLECVQKLGYICKKGNTTLNSFVIPSESDVPTHCPSQWWPYAGHCYKIHRDEKKIQRDALTTCRKEGGDLTSIHTIEELDFIISQLGYEPNDELWIGLNDIKIQMYFEWSDGTPVTFTKWLRGEPSHENNRQEDCVVMKGKDGYWADRGCEWPLGYICKMKSRSQGPEIVEVEKGCRKGWKKHHFYCYMIGHTLSTFAEANQTCNNENAYLTTIEDRYEQAFLTSFVGLRPEKYFWTGLSDIQTKGTFQWTIEEEVRFTHWNSDMPGRKPGCVAMRTGIAGGLWDVLKCDEKAKFVCKHWAEGVTHPPKPTTTPEPKCPEDWGASSRTSLCFKLYAKGKHEKKTWFESRDFCRALGGDLASINNKEEQQTIWRLITASGSYHKLFWLGLTYGSPSEGFTWSDGSPVSYENWAYGEPNNYQNVEYCGELKGDPTMSWNDINCEHLNNWICQIQKGQTPKPEPTPAPQDNPPVTEDGWVIYKDYQYYFSKEKETMDNARAFCKRNFGDLVSIQSESEKKFLWKYVNRNDAQSAYFIGLLISLDKKFAWMDGSKVDYVSWATGEPNFANEDENCVTMYSNSGFWNDINCGYPNAFICQRHNSSINATTVMPTMPSVPSGCKEGWNFYSNKCFKIFGFMEEERKNWQEARKACIGFGGNLVSIQNEKEQAFLTYHMKDSTFSAWTGLNDVNSEHTFLWTDGRGVHYTNWGKGYPGGRRSSLSYEDADCVVIIGGASNEAGKWMDDTCDSKRGYICQTRSDPSLTNPPATIQTDGFVKYGKSSYSLMRQKFQWHEAETYCKLHNSLIASILDPYSNAFAWLQMETSNERVWIALNSNLTDNQYTWTDKWRVRYTNWAADEPKLKSACVYLDLDGYWKTAHCNESFYFLCKRSDEIPATEPPQLPGRCPESDHTAWIPFHGHCYYIESSYTRNWGQASLECLRMGSSLVSIESAAESSFLSYRVEPLKSKTNFWIGLFRNVEGTWLWINNSPVSFVNWNTGDPSGERNDCVALHASSGFWSNIHCSSYKGYICKRPKIIDAKPTHELLTTKADTRKMDPSKPSSNVAGVVIIVILLILTGAGLAAYFFYKKRRVHLPQEGAFENTLYFNSQSSPGTSDMKDLVGNIEQNEHSVI",glycan array binding signal (z-score),[1],-0.44
same,glycan array binding signal (z-score),[2],-0.446
same,glycan array binding signal (z-score),[3],-0.453
same,glycan array binding signal (z-score),[4],-0.339
same,glycan array binding signal (z-score),[5],-0.437
same,glycan array binding signal (z-score),[6],-0.432
same,glycan array binding signal (z-score),[7],-0.43
same,glycan array binding signal (z-score),[8],-0.421
same,glycan array binding signal (z-score),[9],-0.305
same,glycan array binding signal (z-score),[10],-0.426
same,glycan array binding signal (z-score),[11],-0.457
same,glycan array binding signal (z-score),[12],-0.438
same,glycan array binding signal (z-score),[13],-0.456
same,glycan array binding signal (z-score),[14],-0.407
same,glycan array binding signal (z-score),[15],-0.45
same,glycan array binding signal (z-score),[16],-0.455
same,glycan array binding signal (z-score),[17],-0.44
same,glycan array binding signal (z-score),[18],-0.439
same,glycan array binding signal (z-score),[19],-0.429
same,glycan array binding signal (z-score),[20],-0.446
same,glycan array binding signal (z-score),[21],-0.406
same,glycan array binding signal (z-score),[22],0.013
same,glycan array binding signal (z-score),[23],0.712
same,glycan array binding signal (z-score),[24],0.444
same,glycan array binding signal (z-score),[25],-0.256
same,glycan array binding signal (z-score),[26],0.011
same,glycan array binding signal (z-score),[27],0.289
same,glycan array binding signal (z-score),[28],1.23
same,glycan array binding signal (z-score),[29],1.31
same,glycan array binding signal (z-score),[30],3.57
same,glycan array binding signal (z-score),[31],2.45
same,glycan array binding signal (z-score),[32],2.86
same,glycan array binding signal (z-score),[33],3.27
same,glycan array binding signal (z-score),[34],-0.33
same,glycan array binding signal (z-score),[35],-0.403
same,glycan array binding signal (z-score),[36],-0.417
same,glycan array binding signal (z-score),[37],-0.364
same,glycan array binding signal (z-score),[38],-0.336
same,glycan array binding signal (z-score),[39],-0.394
same,glycan array binding signal (z-score),[40],-0.344
same,glycan array binding signal (z-score),[41],-0.4
same,glycan array binding signal (z-score),[42],-0.304
same,glycan array binding signal (z-score),[43],-0.427
same,glycan array binding signal (z-score),[44],1.53
same,glycan array binding signal (z-score),[45],-0.374

# Source: the supplement of paper PMC8728848
